{"source": "PubChem BioAssay AID2546", "about": "(National Center for Advancing Translational Sciences (NCATS), 2010)", "note": "About 11,000 (3.5%) of roughly 310,000 compounds were called active. The shares of active, inactive and inconclusive entries below differ from those in the screen. The call rests on the fitted dose curve; in most records, active means well fitted inhibition curve with a large enough effect; inconclusive means small, poorly fitted or top-dose-only effect, or effect the other way; inactive means flat fitted curve, though single readings scatter. Potencies of inconclusive entries are left out as doubtful fits. On the % scale 0 is the no-effect control and ±100 the full control effect; potency means the concentration at half of the fitted maximal effect; tags describe the fitted curve by direction and shape.", "data": [{"assay": "VP16 counterscreen qHTS for inhibitors of ROR gamma transcriptional activity;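 further: Gal4-VP16 expression switched on by copper sulfate through the metallothionein promoter; nearly all actives have a fitted effect of over 50% in size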", "conditions": "Drosophila S2 Gal4-VP16 UAS-luciferase, luminescence, 20 h; series mostly up to 53.6 µM; activity, negative = inhibition: at the top concentration", "values": [{"smiles": "Nc1ccc(N2CCN(Cc3ccccc3Cl)CC2)c(Cl)c1", "activity, negative = inhibition": "inactive: -0.202%"}, {"smiles": "COc1cccc(C(=O)C2CCCN(Cc3ccon3)C2)c1", "note": "(stereo not given)", "activity, negative = inhibition": "inactive: -23.5%"}, {"smiles": "C[C@@H]1C[C@@H]2O[C@H]2/C=C\\C=C\\C(=O)Cc2c(Cl)c(O)cc(O)c2C(=O)O1", "Potency": "active: 12.6 µM"}, {"smiles": "CCn1ccnc1CN1CCCC(C(=O)c2cccc(C(F)(F)F)c2)C1", "note": "(stereo not given)", "Potency": "active: 10 µM"}, {"smiles": "COc1ccc(NC(=O)C(=O)NNC(=O)C(C)Oc2ccc(Cl)cc2Cl)cc1", "note": "(stereo not given)", "Potency": "inconclusive [inhibitor, single point]"}, {"smiles": "CC(=O)[O][Sn]([c]1ccccc1)([c]1ccccc1)[c]1ccccc1", "Potency": "active: 3.55 µM"}, {"smiles": "O=C1NC(=O)N(Cc2ccco2)C(=O)/C1=C\\c1cccn1CCOc1ccc(Cl)cc1", "Potency": "inconclusive [inhibitor, single point]"}, {"smiles": "CC(=O)Nc1cccc2c1Cc1ccccc1-2", "Potency": "inconclusive [activator, full curve]"}, {"smiles": "O=c1c2ccccc2nc(/C=C/c2ccc(O)cc2)n1-c1ccccc1O", "activity, negative = inhibition": "inactive: 10.5%"}, {"smiles": "CC1=C(O)C(=O)[C@H]2O[C@@H]2C1=O", "Potency": "active: 8.91 µM"}, {"smiles": "CCOP(=O)(OCC)C(Nc1cccc(C(F)(F)F)c1)c1ccc(C)cc1", "note": "(stereo not given)", "Potency": "inconclusive [inhibitor, single point]"}, {"smiles": "O=C(c1csnn1)N1CCC[C@@]2(CCN(Cc3ccncc3)C2)C1", "activity, negative = inhibition": "inactive: 0.233%"}, {"smiles": "Cc1ccc(OCCOc2cccc(C=C3C(=O)NC(=O)NC3=O)c2)cc1", "Potency": "inconclusive [inhibitor, partial curve]"}, {"smiles": "O=C(CC1CCCCC1)c1c(O)c2ccccc2oc1=O", "Potency": "inconclusive [inhibitor, single point]"}, {"smiles": "O=[N+]([O-])c1ccccc1CNCCc1c[nH]c2ccccc12", "activity, negative = inhibition": "inactive: 6.17%"}, {"smiles": "COc1ccc(CN2CCCC(C(=O)c3ccc(Cl)cc3)C2)c(OC)c1", "note": "(stereo not given)", "activity, negative = inhibition": "inactive: -12.2%"}, {"smiles": "C=C(C)[C@]12C[C@@H](C)[C@@]34O[C@](Cc5ccccc5)(O[C@@H]1[C@@H]3C=C(COC(=O)Cc1ccc(O)c(OC)c1)C[C@]1(O)C(=O)C(C)=C[C@@H]41)O2", "Potency": "inconclusive [inhibitor, single point]"}, {"smiles": "CSCc1nnc2n1-c1ccc(Cl)cc1C(c1ccccc1)=NC2", "activity, negative = inhibition": "inactive: -2.28%"}, {"smiles": "NS(=O)(=O)c1ccc(-c2ccc(C=C3C(=O)NC(=O)NC3=O)o2)cc1", "activity, negative = inhibition": "inactive: -3.53%"}, {"smiles": "Cc1cccc(-n2c(=S)[nH]c3ccccc3c2=O)n1", "Potency": "inconclusive [inhibitor, single point]"}, {"smiles": "Nc1ccccc1C(=O)OCCOc1ccccc1", "Potency": "inconclusive [inhibitor, partial curve, poor fit]"}, {"smiles": "NCC(=O)c1ccccc1", "activity, negative = inhibition": "inactive: -3.5%"}, {"smiles": "CCOC(=O)c1ncc2[nH]c3ccc(OCc4ccccc4)cc3c2c1COC", "Potency": "active: 4.47 µM"}, {"smiles": "O=C(Nc1cccc2ccccc12)c1nn(C23CC4CC(CC(C4)C2)C3)cc1Br", "Potency": "inconclusive [inhibitor, partial curve]"}, {"smiles": "CC1(C)[C@@H](C=C(Cl)Cl)[C@@H]1C(=O)OCc1c(F)c(F)cc(F)c1F", "activity, negative = inhibition": "inactive: 8.36%"}, {"smiles": "CN1CC=C(/C=C/c2ccc(-c3ccccc3)cc2)CC1", "Potency": "inconclusive [inhibitor, single point]"}, {"smiles": "CC[n+]1c(-c2ccccc2)c2cc(N)ccc2c2ccc(N)cc21", "Potency": "active: 11.2 µM"}, {"smiles": "C(=C/c1ccccc1)/CN1CCN(CCOC(c2ccccc2)c2ccccc2)CC1", "Potency": "inconclusive [inhibitor, single point]"}, {"smiles": "COc1cc2c(cc1OC)[C@@H]1C(=O)c3ccc(OC)c(CC=C(C)C)c3OC1CO2", "note": "(stereo not given in full)", "Potency": "active: 1.41 µM"}, {"smiles": "COc1ccc(-n2nc(C(=O)NCC(=O)N3CCC4(CC3)OCCO4)c3ccccc3c2=O)cc1", "Potency": "inconclusive [inhibitor, partial curve]"}, {"smiles": "c1ccc(N2CC3(CCNCC3)C2)nc1", "activity, negative = inhibition": "inactive: -7.54%"}, {"smiles": "C=C(C)Cn1c(-c2cccs2)n[nH]c1=S", "Potency": "active: 14.1 µM"}, {"smiles": "c1ccc2c(c1)-c1cccc3cccc-2c13", "activity, negative = inhibition": "inactive: -22.6%"}, {"smiles": "CN(C)C(=O)Oc1ccc(Cl)c2cccnc12", "activity, negative = inhibition": "inactive: -0.28%"}, {"smiles": "COc1ccc(CCNCc2ccc(Br)cc2)cc1OC", "activity, negative = inhibition": "inactive: 8.21%"}, {"smiles": "c1ccc(CCCN2CCN(CCOC(c3ccccc3)c3ccccc3)CC2)cc1", "Potency": "inconclusive [inhibitor, single point]"}, {"smiles": "CN1CCCC2(CCN(C(=O)Oc3ccccc3)CC2)C1", "activity, negative = inhibition": "inactive: -4.43%"}, {"smiles": "CCOC(=O)N1CCN(C(=O)c2ccc3c(=O)n(CCC4=CCCCC4)c(=S)[nH]c3c2)CC1", "Potency": "active: 14.1 µM"}, {"smiles": "CCCN(CCC)c1c([N+](=O)[O-])cc(S(N)(=O)=O)cc1[N+](=O)[O-]", "Potency": "inconclusive [inhibitor, single point]"}, {"smiles": "CC(C)[C@H](NC(=O)[C@H](CC(=O)O)NC(=O)[C@H](Cc1ccccc1)NC(=O)[C@@H](C)NC(=O)[C@@H](N)Cc1ccc(O)cc1)C(=O)N[C@H](C(=O)NCC(N)=O)C(C)C", "activity, negative = inhibition": "inactive: 1.75%"}, {"smiles": "CN(C)c1ccc(N=O)cc1", "Potency": "active: 5.62 µM"}, {"smiles": "C=C1C(O)C2OC3(CCC(/C=C/C(C)C4CC(C)=CC5(OC(CC(C)(O)C(=O)O)CCC5O)O4)O3)CCC2OC1C(O)CC(C)C1OC2(CCCCO2)CCC1C", "note": "(stereo not given)", "Potency": "active: 0.0112 µM"}, {"smiles": "CN1C(=O)C(=Cc2coc3ccccc3c2=O)C(=O)N(C)C1=O", "activity, negative = inhibition": "inactive: -13.5%"}, {"smiles": "COC(=O)c1c(C)n(Cc2ccc3c(c2)OCO3)c2ccc(O)cc12", "Potency": "inconclusive [inhibitor, single point]"}, {"smiles": "Cc1nc(-c2nc(-c3c(C(=O)NNC(=O)c4ccc(Cl)cc4)noc3C)cs2)cs1", "Potency": "inconclusive [inhibitor, single point]"}, {"smiles": "O=C(NC(=S)Nc1ccccc1N1CCCC1)c1ccccc1Br", "Potency": "active: 2.82 µM"}, {"smiles": "CCCCn1cnc2cc(NCc3cccc(OC)c3O)ccc21", "Potency": "inconclusive [inhibitor, single point]"}, {"smiles": "Cc1ccc2c(c1)CC1(CN2C)C(=O)NC(=O)N(C(C)C)C1=O", "note": "(stereo not given)", "activity, negative = inhibition": "inactive: 0.874%"}, {"smiles": "CCCCC(=O)N/N=C/c1c(O)n(CCC2=CCCCC2)c(=O)[nH]c1=O", "activity, negative = inhibition": "inactive: 1.97%"}, {"smiles": "O=C1c2cccc3cccc(c23)C(=O)N1CCN1CCN(C(=S)Nc2ccccc2)CC1", "Potency": "inconclusive [inhibitor, single point]"}]}]}
